ChEMBL document CHEMBL5606460, “ASAP - DENV-2 NS2B-NS3 protease fluorescence single point” (2024)
Hit rate of the full screen: of about 2,000 compounds, about 110 (5.5%) showed an effect of 50% or more. This is one part of the list.

Target: Genome polyprotein (dengue virus type 2) (UniProt P29990)
[1] = Thailand/16681/1984, Concentration 25.0 uM, Number of replicates 1.0

Which results are given for `N#Cc1cccc(NC(=O)[C@@H](NC(=O)c2ccc(Oc3ccc(C(F)(F)F)cc3)cc2)c2ccc(OCc3ccccc3)cc2)c1`?
inhibition (Thailand/16681/1984, Concentration 49.5 uM, Number of replicates 2.0, Standard deviation 0.9263674997821656 %): -5.09%; inhibition (Thailand/16681/1984, Concentration 99.01 uM, Number of replicates 2.0, Standard deviation 0.4269393146330484 %): -4.04%; inhibition (Thailand/16681/1984, Concentration 198.0 uM, Number of replicates 2.0, Standard deviation 0.9636779131327375 %): -5.31%

With `O=Cc1ccc(N2CCC(C(=O)NCc3ccc(Br)cn3)CC2)cc1` as the compound, how does the inhibition [1] read?
The inhibition was 13.7%.

Which inhibition (Thailand/16681/1984, Concentration 49.5 uM, Number of replicates 2.0, Standard deviation 0.023235641877752903 %) does the source give for `CC(C)Nc1nc2cc(NCc3cccc(C(N)=O)c3)ccc2[nH]1` here?
The inhibition was -0.517%.

And the inhibition (Thailand/16681/1984, Concentration 99.01 uM, Number of replicates 2.0, Standard deviation 0.06423980503181957 %)?
The inhibition was 1.24%.

What about the inhibition (Thailand/16681/1984, Concentration 198.0 uM, Number of replicates 2.0, Standard deviation 0.8255495407458023 %) of the same compound?
Its inhibition is 3.31%.

Which inhibition (Thailand/16681/1984, Concentration 49.95 uM, Number of replicates 2.0, Standard deviation 2.182317285773337 %) does the source give for `Cc1cc(CO)c2cccc(Cc3cccc(NC(=O)[C@@H](N)CCN)c3)c2n1` here?
The inhibition was -7.99%.

And the inhibition (Thailand/16681/1984, Concentration 99.9 uM, Number of replicates 2.0, Standard deviation 2.5859629223182328 %)?
The inhibition was 2.16%.

What does the source list for `c1ccc(-n2cc(CN3CCC(c4c[nH]c5cccnc45)CC3)cn2)nc1`?
inhibition (Thailand/16681/1984, Concentration 49.5 uM, Number of replicates 2.0, Standard deviation 0.8881344076239932 %): -3.41%; inhibition (Thailand/16681/1984, Concentration 99.01 uM, Number of replicates 2.0, Standard deviation 1.8098148406769592 %): -2.75%; inhibition (Thailand/16681/1984, Concentration 198.0 uM, Number of replicates 2.0, Standard deviation 0.240693571175166 %): -2.36%

How did the inhibition (Thailand/16681/1984, Concentration 49.5 uM, Number of replicates 2.0, Standard deviation 2.765243941206539 %) turn out when `COc1cnccc1NC(=O)c1cccn(CC(C)C)c1=O` was run?
Its inhibition is 11.3%.

What about the inhibition (Thailand/16681/1984, Concentration 99.01 uM, Number of replicates 2.0, Standard deviation 1.9875860330110593 %) of the same compound?
Its inhibition is 23.2%.

And the inhibition (Thailand/16681/1984, Concentration 198.0 uM, Number of replicates 2.0, Standard deviation 1.4487159840884771 %)?
Its inhibition is 40.5%.

How did the inhibition [1] turn out when `O=Cc1ccc(N2CCC(C(=O)NCc3cccc(-n4cccn4)c3)CC2)cc1` was run?
Its inhibition is 13.6%.

`Cc1cc(CO)c2cccc(Cc3cccc(C(=O)N4CCC(C(=O)O)CC4)c3)c2n1` was tested. Which inhibition (Thailand/16681/1984, Concentration 49.95 uM, Number of replicates 2.0, Standard deviation 0.11067239798039237 %) did it give?
The inhibition was -0.531%.

And the inhibition (Thailand/16681/1984, Concentration 99.9 uM, Number of replicates 2.0, Standard deviation 0.04599367566818035 %)?
Its inhibition is 2.3%.

How did the inhibition (Thailand/16681/1984, Concentration 49.5 uM, Number of replicates 2.0, Standard deviation 2.0948544829183176 %) turn out when `COc1cc(C(=O)O)nc(N2CCN(C(=O)OC(C)(C)C)CC2)n1` was run?
Its inhibition is -0.321%.

And the inhibition (Thailand/16681/1984, Concentration 99.01 uM, Number of replicates 2.0, Standard deviation 2.2333572879074235 %)?
Its inhibition is 0.466%.

And the inhibition (Thailand/16681/1984, Concentration 198.0 uM, Number of replicates 2.0, Standard deviation 0.09248704437230586 %)?
The inhibition was 3.59%.

For `Cc1cc(N)c2cccc(F)c2n1`, which inhibition (Thailand/16681/1984, Concentration 49.95 uM, Number of replicates 2.0, Standard deviation 2.207074007413848 %) is on record?
Its inhibition is -9.77%.

What about the inhibition (Thailand/16681/1984, Concentration 99.9 uM, Number of replicates 2.0, Standard deviation 2.035147234269057 %) of the same compound?
Its inhibition is -9.31%.

How did the inhibition (Thailand/16681/1984, Concentration 49.5 uM, Number of replicates 2.0, Standard deviation 0.12064611250570736 %) turn out when `CNC(=O)c1ccc2n1CCN(S(=O)(=O)c1cc(-c3ccccc3)no1)[C@@H]2C` was run?
The inhibition was 1.43%.

What about the inhibition (Thailand/16681/1984, Concentration 99.01 uM, Number of replicates 2.0, Standard deviation 1.80969147421719 %) of the same compound?
Its inhibition is 1.32%.

And the inhibition (Thailand/16681/1984, Concentration 198.0 uM, Number of replicates 2.0, Standard deviation 1.5133216237653713 %)?
Its inhibition is -2.32%.
